Assay results reported in publication PMC6212790.
The other results are listed elsewhere or left out. At the low end of the ranking the order means little.

Each sequence was assayed against T1, GST-Rok (full length) (UniProt O34857) (assay: protein binding microarray). Conditions: Rok is a gene silencer of Bacillus subtilis; high values mean tight binding; most listed sequences are background and not binding sites; double strand, one strand shown.
T1 sequence: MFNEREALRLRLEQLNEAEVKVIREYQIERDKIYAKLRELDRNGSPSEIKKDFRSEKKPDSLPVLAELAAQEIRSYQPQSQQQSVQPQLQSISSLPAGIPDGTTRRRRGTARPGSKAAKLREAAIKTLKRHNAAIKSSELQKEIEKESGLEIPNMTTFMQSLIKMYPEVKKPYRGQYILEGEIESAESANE
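Also: rank score from −0.5 (least bound) to 0.5 (best bound).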

Sequence | binding signal [E-score]
GAGTACGA | 0.0148
GGGCTGTA | -0.00207
GCCTTTCC | -0.376
GTAGGCAC | -0.129
CTTTGCTC | -0.0932
TCCAGCAA | 0.155
ATTGACTC | -0.0934
ACCAAGCT | 0.138
ACCGTCCC | -0.254
CTTATTGA | -0.157
AGGATCCG | -0.00887
ACCGAGCT | -0.0523
AACGTGAT | 0.134
GTGGAGCA | -0.0352
ACACGCCT | -0.0198
AATTAGCA | 0.271
AGGAACGC | -0.222
CTTGCGCA | -0.0792
ACCATAAT | 0.206
GATGGGAA | -0.056
CGAGATTA | 0.24
GTGAATAA | -0.00672
CTTGCGAA | -0.248
AATGTACC | 0.321
CCGGTAGG | -0.0731

Sequence | binding signal [E-score]
AACCTCAG | 0.179
AACTCGGG | -0.034
GGGTCACA | -0.0349
AGACTCCG | -0.167
GTCACCGA | -0.0907
ACGGGAGG | -0.226
ACTTCCTC | -0.29
AGATGATG | -0.0712
TCCCCCGA | -0.401
CAAGAAGC | -0.164
ATCAATCA | 0.114
ATGCGGCG | -0.107
CCGCGGCC | -0.364
GACGTTCA | -0.127
ACTGGTCC | -0.145
ATAAGTTG | 0.211
TCCCCAAA | -0.169
AATGTTAG | 0.105
AAATAAGA | 0.134
AAGGGACG | -0.273
AGCGGTTG | -0.114
AAGCTTAC | 0.118
ATTTTAAA | 0.126
CCTATTCA | -0.0574
TACGTCCA | -0.0463

Sequence | binding signal [E-score]
CAATTAAA | 0.187
TGTCCGAA | -0.0878
CACAGCCC | -0.126
AGGCAGAT | -0.293
GTATCACA | 0.187
AAATAGGC | 0.00361
ATAGTGCC | -0.121
AGATAGTA | 0.347
GAGCTATA | 0.145
CCCCCTCA | -0.421
GCACGGCC | -0.21
ATATATGG | 0.299
CGCACAGA | -0.0479
GTAGGCTA | 0.101
AGAAACTC | 0.158
GAGGAGGA | -0.317
ACGTGCGA | -0.0508
GTAAACAA | 0.0786
CCGTCAGG | -0.328
ACCGAGAT | 0.0591
ATAGACTC | 0.0376
CACAAAAG | -0.0697
CCGTTCTC | -0.0253
GGCCATTA | -0.0263
GCGGGCAC | -0.205

Sequence | binding signal [E-score]
GATCGACA | -0.231
AAGGCCCC | -0.456
ACGAGGTC | 0.0222
ACGCACTC | 0.0403
CCGCACAA | -0.137
CCATTTGA | -0.202
ACTCCTAA | 0.136
AATGTTCG | -0.0446
CCATCCGG | -0.163
CGGAGTAA | -0.0891
CAGAGCGA | -0.261
CTTTACAC | 0.0178
ACGAGCGC | -0.217
ATCACTTA | 0.19
CAGTATAC | 0.249
AACACGAT | 0.145
CGACTGAA | 0.0531
CCGCCAGC | -0.259
CCGCATGA | -0.265
CTTTAGTA | 0.23
AGCCGGCA | -0.19
ATCCTGGA | 0.0181
CGACTAGA | -0.00813
TACGACAA | 0.152
CATAATGA | 0.206

Sequence | binding signal [E-score]
GCACTATA | 0.171
GCACAAGA | -0.113
GCGCCCCA | -0.427
CATGCAGA | -0.0337
GAACCGGA | -0.234
ATTGCCTC | -0.0913
TAAATCCA | 0.271
AGCCTGAG | -0.232
CTAACTAC | 0.397
ACTGGTAG | 0.252
GAAGCAGA | 0.0364
TACCCGGA | -0.00401
GTTACCTA | 0.0966
GCTGCATA | 0.0742
AAAACAAT | 0.245
CTGCGTAA | 0.0267
ATGCTTAG | 0.0152
AATCCAGA | 0.0616
CAAGTTGG | -0.082
GTGGGTTA | -0.107
GCCCGTAA | -0.148
CATCGTCG | 0.0751
TCTGGCCA | -0.144
ACCAACTG | -0.207
CCAATAGC | -0.0527

Sequence | binding signal [E-score]
GCAACGAC | -0.0786
ATCGCGGG | -0.192
ACCCACGG | -0.147
GTAAGTTA | 0.264
CCATCCTA | -0.102
CCGGAGCG | -0.238
GGTGTTAC | 0.064
AGGATGTC | -0.198
CCTTTCGA | -0.249
CGCCCTGC | -0.364
AGTAAACC | 0.161
ATACCCCC | -0.244
AAGAGCAC | -0.268
GCTATCCC | -0.0139
AAGCCCGG | -0.252
CCACGGGA | -0.156
AGTGGAGA | -0.152
CTGGCATA | -0.0278
TATGTTCA | 0.159
CCTAATAA | -0.137
GAGTCCAA | 0.0905
AATCTATG | 0.174
ACATGACC | 0.211
GAAGCAGC | -0.243
GTTTTGAA | -0.056

Sequence | binding signal [E-score]
ACAGAAAT | 0.134
AAACAATG | 0.0437
CAGTACCA | -0.0138
ACGCGAAT | 0.235
CATAAGAA | 0.266
CCTATAGA | 0.0582
AATATAGA | 0.365
AGTTGTCA | 0.0597
GATCATCA | -0.0458
GCCGGCAA | -0.163
ACGGCATG | -0.125
ACGTCGAC | -0.219
CCAACTGA | -0.099
CCCGGGGC | -0.385
CTTTCGCA | -0.0876
CAGCGTAC | 0.0603
AAGGGATA | -0.135
ATAATAGA | 0.271
ACGTGGGC | -0.0245
ACAAACCA | 0.02
CTTTGTAA | 0.155
AGCATGCG | -0.0322
CAACCCGA | -0.056
GATAATGA | 0.147
AGGACGGA | -0.0841

Sequence | binding signal [E-score]
AGCTATGC | -0.101
AGGTTTTG | 0.011
ACTTGATC | 0.000129
CGGGATCC | -0.107
ATTTCAAC | 0.102
CTGAGTAC | 0.0392
CGAATTGC | 0.101
TACTGAAA | 0.076
AATTATCG | 0.217
CAGGGGGA | -0.454
TAACTCAA | 0.247
CGCTCCAC | -0.173
GTGATAAC | 0.0453
CACACTGC | -0.0904
GTTTCCCA | -0.0949
ACAAAAAC | 0.116
GCAGTGAC | -0.239
CGCCTGTA | 0.156
ATCTTATC | 0.202
ATGCAAGC | -0.0813
ATGACTCC | -0.133
GACGTAAC | -0.0445
TAAACGTA | 0.211
ACGAGCGA | -0.0348
GCACGCCC | -0.349

Sequence | binding signal [E-score]
CGGCAAAG | -0.322
ACGAGCAG | -0.126
AGGTTCCA | -0.241
ATGTGCAG | -0.0663
ACTGTGCC | -0.0831
ACCTAGGT | 0.0061
ATTCGTAA | 0.146
GCGACAGA | 0.0157
AACATTCT | 0.0974
CGCTTTGC | -0.144
TACCTCAA | 0.23
CGCAAGAG | -0.125
CGCAAAAG | -0.106
CATTCCCA | -0.126
AGCCGGAA | -0.0877
GATTGAAC | 0.0118
ATATCCCA | 0.154
AACGAGTG | 0.155
CTGGCCTC | -0.374
GTAGAAGA | 0.247
ACGTGGAT | -0.0483
AGATACTA | 0.348
ATACTTCC | 0.252
AACTCACT | 0.115
CAAGCGGG | -0.364

Sequence | binding signal [E-score]
CGCGAGGA | -0.199
GAGGCTTA | -0.154
CTACCATC | 0.396
CAACCGCG | -0.197
AAAAACCC | 0.0268
CACAAGCG | 0.0618
AGCCGTGA | -0.106
AGTTCGTC | 0.0184
AAGTTTCT | 0.231
AATCGAGG | 0.0626
CGTGAGCC | -0.276
GCGGGGAC | -0.408
CACCCGAA | -0.364
CCTTAGGA | -0.114
CATCATGC | 0.0531
GACGATGA | -0.103
ACACATAA | 0.166
AAACTTTC | 0.164
GCAATTAC | 0.16
ACAGTGTG | -0.125
AGAATGAG | -0.0236
AACGCCGT | -0.0747
AATACGAC | 0.16
ACTGATCA | 0.0412
GTAGTGAA | 0.202

Sequence | binding signal [E-score]
ATGTGCGG | -0.0379
CCATAACC | -0.0693
TATTTTCA | 0.204
GCTAATCA | -0.0073
ACGATAGC | 0.279
AATAAGAC | 0.058
ATATCGTA | 0.293
GGAGAATA | 0.12
AGACGCAT | -0.0322
ACACATCT | 0.196
ACTGTGAT | 0.154
ATCAGCAA | -0.0224
GGGGGCAA | -0.248
CGTTTTTA | 0.0304
AGCTTAGG | 0.072
AAGATACC | 0.118
AACCGATA | 0.214
AGCTGGTG | 0.135
CCTGTGGA | -0.117
AGAGTCCG | -0.258
GATTAGTA | 0.264
CGATAAGA | 0.0438
CGGAAGTC | 0.0244
CCCCTCTC | -0.353
TGACGCAA | -0.00909

Sequence | binding signal [E-score]
GGAGGAAA | -0.0576
CTGTGTGC | -0.104
ACGTACGA | 0.0672
AACTCAAC | 0.0607
AGGACTAG | 0.0412
CGATGGGA | -0.259
CCCTGGCA | -0.22
CCATGCCC | -0.405
ACCACCCG | -0.253
CAATATCG | 0.08
ACAAGTAT | 0.188
AGGCCACC | -0.163
ACACTTGA | 0.0758
AAACTGAT | 0.193
CGAGAGAA | 0.0991
CCAAAAGA | -0.246
CAGTGAGG | -0.101
AAAATTAA | 0.254
AGCCACAA | 0.0159
AAAGAACA | -0.199
CAGTCTAA | -0.0991
AGAGACGG | -0.259
GAAGTTAC | 0.161
GTCGAGAC | -0.279
CTTCTAGC | 0.19

Sequence | binding signal [E-score]
ACTAGAAA | 0.344
CAGTGAGC | -0.236
ACTGAGAC | -0.113
CGGCTAAG | -0.0584
ATGACTGA | -0.00523
CTACCCCC | -0.201
GATTTCCC | 0.0194
CATGTGCG | -0.127
AATCTATA | 0.384
ACGTAATA | 0.3
CCGGCTAC | -0.0888
GAAACCCA | -0.125
ATGTAAGA | 0.118
GATAAGCA | 0.159
CCCTGGCC | -0.399
GCACAAAA | 0.186
GACCTAAC | 0.0674
AAACAACG | 0.0649
GCTGGTTA | 0.189
ATCCGCGC | -0.0881
TCGCATAA | 0.093
AGGCTAGG | -0.114
AGCCGCCC | -0.278
CGGTAGAG | 0.0632
ACTTAAAG | -0.164

Sequence | binding signal [E-score]
ACGACATA | 0.137
GTATACGA | 0.179
AGCGTCCT | -0.316
CTTATGGA | -0.0622
AAAGTTTA | -0.00448
AATTTTAG | 0.222
GCTTTAAC | -0.15
ATTAGCGA | 0.0888
CAGTTTAA | 0.0735
GGTGCTGA | -0.101
AGGTGGAC | -0.266
CCGTTTAA | -0.0159
CCGCCCGG | -0.388
GGTGTACA | 0.0307
ACATGAGG | -0.207
GATGAGGC | -0.228
CAGTCTTA | 0.158
AGCAGTGA | 0.0135
CATTTTGA | 0.185
